# The list shows a part of the results.
# B1: L-Selectin (Mus musculus), P18337 (protein)
# chain: MVFPWRCEGTYWGSRNILKLWVWTLLCCDFLIHHGTHCWTYHYSEKPMNWENARKFCKQNYTDLVAIQNKREIEYLENTLPKSPYYYWIGIRKIGKMWTWVGTNKTLTKEAENWGAGEPNNKKSKEDCVEIYIKRERDSGKWNDDACHKRKAALCYTASCQPGSCNGRGECVETINNHTCICDAGYYGPQCQYVVQCEPLEAPELGTMDCIHPLGNFSFQSKCAFNCSEGRELLGTAETQCGASGNWSSPEPICQVVQCEPLEAPELGTMDCIHPLGNFSFQSKCAFNCSEGRELLGTAETQCGASGNWSSPEPICQETNRSFSKIKEGDYNPLFIPVAVMVTAFSGLAFLIWLARRLKKGKKSQERMDDPY
# Key:
# Test in all cases: glycan array binding signal (z-score within array); higher = stronger binding
# Settings in all cases: glycan notation: IUPAC condensed, linker removed
# [1] = target: Gal(b1-3)GalNAc(b1-4)[Neu5Ac(a2-3)]Gal(b1-4)Glc
# Summary of the method: (§1)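 From the Consortium for Functional Glycomics database, 3228 arrays were curated, keeping only those whose protein sequence was available. Binding is given as a within-array Z-score averaged across arrays sharing a protein sequence and across linkers. Negative Z-scores can be read as non-binding.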
# Gal(b1-3)GlcNAc = target: Gal(b1-3)GlcNAc
# Summary of the method: as §1
# [2] = target: Gal(b1-3)GlcNAc(b1-2)Man(a1-3)[Gal(b1-3)GlcNAc(b1-2)Man(a1-6)]Man(b1-4)GlcNAc(b1-4)GlcNAc
# Summary of the method: as §1
# [3] = target: Gal(b1-3)GlcNAc(b1-3)Gal(b1-3)GlcNAc
# Summary of the method: as §1
# [4] = target: Gal(b1-3)GlcNAc(b1-3)Gal(b1-4)Glc
# Summary of the method: as §1
# [5] = target: Gal(b1-3)GlcNAc(b1-3)Gal(b1-4)GlcNAc
# Summary of the method: as §1
# [6] = target: Gal(b1-3)[Fuc(a1-4)]GlcNAc
# Summary of the method: as §1
# [7] = target: Gal(b1-3)[Fuc(a1-4)]GlcNAc(b1-3)Gal(b1-3)[Fuc(a1-4)]GlcNAc
# Summary of the method: as §1
# [8] = target: Gal(b1-3)[Fuc(a1-4)]GlcNAc(b1-3)Gal(b1-4)GlcNAc
# Summary of the method: as §1
# [9] = target: Gal(b1-3)[Fuc(a1-4)]GlcNAc(b1-3)Gal(b1-4)[Fuc(a1-3)]GlcNAc
# Summary of the method: as §1
# [10] = target: Gal(b1-3)[GlcNAc(b1-6)]GalNAc
# Summary of the method: as §1
# [11] = target: Gal(b1-3)[Neu5Ac(a2-6)]GalNAc
# Summary of the method: as §1
# [12] = target: Gal(b1-3)[Neu5Ac(a2-6)]GlcNAc(b1-6)Gal(b1-4)Glc
# Summary of the method: as §1
# [13] = target: Gal(b1-3)[Neu5Ac(b2-6)]GalNAc
# Summary of the method: as §1
# [14] = target: Gal(b1-4)GalNAc(a1-3)[Fuc(a1-2)]Gal(b1-4)GlcNAc
# Summary of the method: as §1
# [15] = target: Gal(b1-4)GalNAc(b1-3)[Fuc(a1-2)]Gal(b1-4)GlcNAc
# Summary of the method: as §1
# Gal(b1-4)Glc = target: Gal(b1-4)Glc
# Summary of the method: as §1
# Gal(b1-4)Glc6S = target: Gal(b1-4)Glc6S
# Summary of the method: as §1
# Gal(b1-4)GlcNAc = target: Gal(b1-4)GlcNAc
# Summary of the method: as §1
# [16] = target: Gal(b1-4)GlcNAc(a1-6)Gal(b1-4)GlcNAc
# Summary of the method: as §1
# [17] = target: Gal(b1-4)GlcNAc(b1-2)Man(a1-3)[Gal(b1-4)GlcNAc(b1-2)Man(a1-6)]Man(b1-4)GlcNAc(b1-4)GlcNAc
# Summary of the method: as §1
# [18] = target: Gal(b1-4)GlcNAc(b1-3)Gal(b1-3)GlcNAc
# Summary of the method: as §1
# [19] = target: Gal(b1-4)GlcNAc(b1-3)Gal(b1-4)Glc
# Summary of the method: as §1
# [20] = target: Gal(b1-4)GlcNAc(b1-3)Gal(b1-4)GlcNAc
# Summary of the method: as §1
# [21] = target: Gal(b1-4)GlcNAc(b1-3)Gal(b1-4)GlcNAc(b1-3)Gal(b1-4)GlcNAc
# Summary of the method: as §1
# [22] = target: Gal(b1-4)GlcNAc(b1-3)Gal(b1-4)[Fuc(a1-3)]GlcNAc(b1-3)Gal(b1-4)[Fuc(a1-3)]GlcNAc
# Summary of the method: as §1
# [23] = target: Gal(b1-4)GlcNAc(b1-3)GalNAc
# Summary of the method: as §1
# [24] = target: Gal(b1-4)GlcNAc(b1-3)[Gal(b1-4)GlcNAc(b1-6)]Gal(b1-4)GlcNAc
# Summary of the method: as §1
# [25] = target: Gal(b1-4)GlcNAc(b1-3)[Gal(b1-4)GlcNAc(b1-6)]GalNAc
# Summary of the method: as §1
# [26] = target: Gal(b1-4)GlcNAc(b1-3)[GlcNAc(b1-6)]Gal(b1-4)GlcNAc
# Summary of the method: as §1
# [27] = target: Gal(b1-4)GlcNAc(b1-6)Gal(b1-4)GlcNAc
# Summary of the method: as §1
# [28] = target: Gal(b1-4)GlcNAc(b1-6)Gal(b1-4)GlcNAc(b1-6)GalNAc
# Summary of the method: as §1
# [29] = target: Gal(b1-4)GlcNAc(b1-6)GalNAc
# Summary of the method: as §1
# [30] = target: Gal(b1-4)GlcNAc(b1-6)[Gal(b1-3)]GalNAc
# Summary of the method: as §1
# Gal3S(b1-3)GalNAc = target: Gal3S(b1-3)GalNAc
# Summary of the method: as §1
# Gal3S(b1-3)GlcNAc = target: Gal3S(b1-3)GlcNAc
# Summary of the method: as §1
# [31] = target: Gal3S(b1-3)[Fuc(a1-4)]GlcNAc
# Summary of the method: as §1
# Gal3S(b1-4)Glc = target: Gal3S(b1-4)Glc
# Summary of the method: as §1
binder,measurement,setting,value
B1,glycan array binding signal (z-score),[1],-0.174
same,glycan array binding signal (z-score),Gal(b1-3)GlcNAc,-0.359
same,glycan array binding signal (z-score),[2],-0.539
same,glycan array binding signal (z-score),[3],-0.607
same,glycan array binding signal (z-score),[4],-0.182
same,glycan array binding signal (z-score),[5],-0.599
same,glycan array binding signal (z-score),[6],-0.418
same,glycan array binding signal (z-score),[7],-0.033
same,glycan array binding signal (z-score),[8],-0.212
same,glycan array binding signal (z-score),[9],-0.568
same,glycan array binding signal (z-score),[10],-0.235
same,glycan array binding signal (z-score),[11],-0.079
same,glycan array binding signal (z-score),[12],-0.491
same,glycan array binding signal (z-score),[13],-0.348
same,glycan array binding signal (z-score),[14],-0.466
same,glycan array binding signal (z-score),[15],-0.118
same,glycan array binding signal (z-score),Gal(b1-4)Glc,-0.364
same,glycan array binding signal (z-score),Gal(b1-4)Glc6S,0.961
same,glycan array binding signal (z-score),Gal(b1-4)GlcNAc,-0.264
same,glycan array binding signal (z-score),[16],-0.053
same,glycan array binding signal (z-score),[17],-0.548
same,glycan array binding signal (z-score),[18],0.173
same,glycan array binding signal (z-score),[19],-0.243
same,glycan array binding signal (z-score),[20],-0.225
same,glycan array binding signal (z-score),[21],-0.574
same,glycan array binding signal (z-score),[22],0.011
same,glycan array binding signal (z-score),[23],-0.33
same,glycan array binding signal (z-score),[24],0.228
same,glycan array binding signal (z-score),[25],-0.393
same,glycan array binding signal (z-score),[26],-0.197
same,glycan array binding signal (z-score),[27],0.199
same,glycan array binding signal (z-score),[28],-0.369
same,glycan array binding signal (z-score),[29],-0.227
same,glycan array binding signal (z-score),[30],-0.389
same,glycan array binding signal (z-score),Gal3S(b1-3)GalNAc,-0.095
same,glycan array binding signal (z-score),Gal3S(b1-3)GlcNAc,-0.144
same,glycan array binding signal (z-score),[31],3.61
same,glycan array binding signal (z-score),Gal3S(b1-4)Glc,0.558

# — the supplement of paper PMC8728848
